# The source gives no read counts; variants with many changes may rest on few reads.
# B1: CPEB3 Ribozyme (parent)
# chain: UAACAGGGGGCCACAGCAGAAGCGUUCACGUCGCAGCCCCUGUCAGAUUCUGGUGAAUCUGCGAAUUCUGCUGUAUAUCUC
# Variants of: B1
# Assay: self-cleavage, relative activity (ratio to wild type); higher = more cleavage; in vitro, sequencing
# Summary of the method: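 CPEB3 self-cleaving ribozyme mutant libraries were made by rounds of error-prone PCR, barcoded, and transcribed in vitro with T7 RNA polymerase for 5 hours at 37°C. Cleavage occurred during transcription and a 15 min DNase I step before EDTA stop. RNAs were reverse transcribed with template switching and Illumina-sequenced, with DNA sequencing mapping barcodes to variants. Relative activity is the variant's cleaved/total read fraction divided by wild type's (minimum 5 reads), averaged across three batches.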
row,Variant,self-cleavage
1,UAACAGGGGGCCACAGCAGAAGCGUUCACGUCGCAGCCCCUGUCAGAUUCUGGUGAAUCUGCGAAUUCAGCAGAAUAUCUC [U69A U72A U74A],0.17
2,UAACAGGGGGCCACAGCAGAAGCGUUCACGUCGCAGCCCCUGUCAGAUUCUGGUGAAUCUGCGAAUUCAGCCGUAUAUCCC [U69A U72C U80C],0.45
3,UAACAGGGGGCCACAGCAGAAGCGUUCACGUCGCAGCCCCUGUCAGAUUCUGGUGAAUCUGCGAAUUCAGCGGUGUAUCUC [U69A U72G A75G],0.45
4,UAACAGGGGGCCACAGCAGAAGCGUUCACGUCGCAGCCCCUGUCAGAUUCUGGUGAAUCUGCGAAUUCCGCUGUAUGUCAC [U69C A77G U80A],0.96
5,UAACAGGGGGCCACAGCAGAAGCGUUCACGUCGCAGCCCCUGUCAGAUUCUGGUGAAUCUGCGAAUUCCGCAGUAUAUCCC [U69C U72A U80C],0.51
6,UAACAGGGGGCCACAGCAGAAGCGUUCACGUCGCAGCCCCUGUCAGAUUCUGGUGAAUCUGCGAAUUCCGCCGUAUCUCUC [U69C U72C A77C],0.37
7,UAACAGGGGGCCACAGCAGAAGCGUUCACGUCGCAGCCCCUGUCAGAUUCUGGUGAAUCUGCGAAUUCGGCUGUCUCUCUC [U69G A75C A77C],0.82
8,UAACAGGGGGCCACAGCAGAAGCGUUCACGUCGCAGCCCCUGUCAGAUUCUGGUGAAUCUGCGAAUUCUACCGUAUAUCAC [G70A U72C U80A],0.52
9,UAACAGGGGGCCACAGCAGAAGCGUUCACGUCGCAGCCCCUGUCAGAUUCUGGUGAAUCUGCGAAUUCUACUGUAAAUCCC [G70A U76A U80C],0.74
10,UAACAGGGGGCCACAGCAGAAGCGUUCACGUCGCAGCCCCUGUCAGAUUCUGGUGAAUCUGCGAAUUCUCACGUAUAUCUC [G70C C71A U72C],0.3
11,UAACAGGGGGCCACAGCAGAAGCGUUCACGUCGCAGCCCCUGUCAGAUUCUGGUGAAUCUGCGAAUUCUGACGUAUAACUC [C71A U72C U78A],0.33
12,UAACAGGGGGCCACAGCAGAAGCGUUCACGUCGCAGCCCCUGUCAGAUUCUGGUGAAUCUGCGAAUUCUGCAGUAUUUUUC [U72A A77U C79U],1.26
13,UAACAGGGGGCCACAGCAGAAGCGUUCACGUCGCAGCCCCUGUCAGAUUCUGGUGAAUCUGCGAAUUCUGCCGUGCAUCUC [U72C A75G U76C],1.06
14,UAACAGGGGGCCACAGCAGAAGCGUUCACGUCGCAGCCCCUGUCAGAUUCUGGUGAAUCUGCGAAUUCUGCCGUAUUUCUA [U72C A77U C81A],1.27
15,UAACAGGGGGCCACAGCAGAAGCGUUCACGUCGCAGCCCCUGUCAGAUUCUGGUGAAUCUGCGAAUUCUGCCGCAUAACUC [U72C U74C U78A],1.41
16,UAACAGGGGGCCACAGCAGAAGCGUUCACGUCGCAGCCCCUGUCAGAUUCUGGUGAAUCUGCGAAUUCUGCCGUAAUUCUC [U72C U76A A77U],1.04
17,UAACAGGGGGCCACAGCAGAAGCGUUCACGUCGCAGCCCCUGUCAGAUUCUGGUGAAUCUGCGAAUUCUGCCGUACAACUC [U72C U76C U78A],1.19
18,UAACAGGGGGCCACAGCAGAAGCGUUCACGUCGCAGCCCCUGUCAGAUUCUGGUGAAUCUGCGAAUUCUGCCGUACAUCCC [U72C U76C U80C],1.17
19,UAACAGGGGGCCACAGCAGAAGCGUUCACGUCGCAGCCCCUGUCAGAUUCUGGUGAAUCUGCGAAUUCUGCCGUAUACGUC [U72C U78C C79G],1.26
20,UAACAGGGGGCCACAGCAGAAGCGUUCACGUCGCAGCCCCUGUCAGAUUCUGGUGAAUCUGCGAAUUCUGCUGAAUAUACC [U74A C79A U80C],1.3
21,UAACAGGGGGCCACAGCAGAAGCGUUCACGUCGCAGCCCCUGUCAGAUUCUGGUGAAUCUGCGAAUUCUGCUGUAUUCCCC [A77U U78C U80C],0.72

# Reference: the RNAGym collection of RNA variant scans (doi:10.1093/nar/gkz1192)
